Experimental findings from ChEMBL document CHEMBL4888484, “Replenishing the malaria drug discovery pipeline: Screening and hit evaluation of the MMV Hit Generation Library 1 (HGL1) against asexual blood stage Plasmodium falciparum ,using a nano luciferase reporter read-out” (2022) are described below.

In all, about 150,000 compounds went through this assay and about 540 (0.36%) showed an effect of 50% or more. Some of the results follow.

In general, % Inhibition refers to the change of the read-out against control, counted positive when it falls.

The test system of this test is Plasmodium falciparum. The test can be described thus: Primary screen in NF54 nanoGlo assay, in single point, at 2uM, 72h; a lower Z score goes with more inhibition. It counts as functional, Erythrocyte. The note with it: timepoint 72 hour.
As for `CCCc1nc(C)c(CNS(=O)(=O)CCC)s1`, the “% Inhibition” value was -17% and the Z score was 2.19.
Consider `Cc1ncsc1CCC(=O)N[C@H]1CC(=O)N(c2ccccc2)C1`, for which the “% Inhibition” value is given as 5% and the Z score is listed as -0.96.
Regarding `O=C(Nc1nnc(-c2cc(F)ccc2F)s1)c1csnn1`, the “% Inhibition” value is -20% and the Z score was determined as 2.7.
Take `CCC(Oc1ccc2c(c1)C(c1ccccc1)N(Cc1ccccc1F)CC2)C(=O)NCCC(C)C` (stereo not drawn): the “% Inhibition” value is -11% and the Z score came to 1.96.
Regarding `CCN(CCOc1cccc(C)c1)C(=O)c1ccc(-c2cnn(CC)c2)cc1`, the “% Inhibition” value is 14% and the Z score is given as -1.86.
As for `Cc1nn(C(C)C)cc1-c1cccc2ccnn12`, the “% Inhibition” value is given as -5% and the Z score is 1.05.
In the case of `Cc1cc(NC(=O)N[C@H]2CCCC[C@@H]2OCc2ccccc2)n(C)n1`, the “% Inhibition” value was -5% and the Z score was 0.67.
For `CN1C(=O)C2(CCN(c3ncc(F)cn3)CC2)c2ccccc21`, the “% Inhibition” value stood at 6% and the Z score is -0.74.
As to `COc1cccc([C@H]2Nc3ccccc3-n3c(-c4ccccc4C)c4c(=O)n(C)c(=O)n(C)c4c32)c1O`, the “% Inhibition” value is given as 2% and the Z score is recorded as -0.4.
Consider `Cc1ccoc1C(=O)NCC1(c2ccccc2)CC1`, for which the “% Inhibition” value was -26% and the Z score is listed as 3.09.
The like results for `CNC(=O)Cc1csc(NC(=O)c2cccnc2O[C@H]2CCOC2)n1` were, in that order, 0% and 0.07.
Regarding `c1cnc(-c2nc(CN3CCC[C@H]3c3cccs3)cs2)nc1`, the “% Inhibition” value is -11% and the Z score amounted to 1.43.
For `Cc1cccc(NC(=O)c2nnc(CCC(=O)N3CCCC3)s2)c1`, the “% Inhibition” value is -13% and the Z score is listed as 2.44.
In the case of `CC1(C)CCc2ccccc2[C@@H](NCC(=O)NC2CCOCC2)C1`, the “% Inhibition” value is reported as -15% and the Z score is 2.05.
Turning to `CN(C)S(=O)(=O)N1CCC(CNC(=O)CC2CC2)CC1`, the “% Inhibition” value was found to be 1% and the Z score is given as -0.23.
Turning to `Cc1noc(C)c1S(=O)(=O)N1CC[C@H](c2ncon2)C1`, the “% Inhibition” value is recorded as 4% and the Z score is on record as -0.72.
On to `O=C(CN1CCCS1(=O)=O)N1CCCCC[C@H]1c1noc(-c2ccccc2)n1`, for which the “% Inhibition” value is -13% and the Z score is given as 1.51.
The matching figures for `CC(C)CC1(NC2CCN(c3ccc(-n4cccn4)cc3)CC2)CC1`: -5% and 0.88.
`Cc1ccc(C(=O)N2CC[C@H](O)[C@@H](C3CCCC3)C2)c(C2CC2)n1`: the “% Inhibition” value was -13% and the Z score came to 2.22.
Consider `Cc1nccc(O[C@H]2CCN(C(=O)CCC(=O)c3ccccc3)C2)n1`, for which the “% Inhibition” value was -14% and the Z score amounted to 2.24.
As for `O=C(N[C@H]1CCOC[C@@H]1OCc1ccccn1)c1ccncc1O`, the “% Inhibition” value was -15% and the Z score is listed as 2.26.
Turning to `Cc1nc(CNc2ccc(CCC(F)(F)F)cc2)no1`, the “% Inhibition” value turned out to be 0% and the Z score is reported as -0.05.
As to `CCn1c(C2CCNCC2)nn(C/C=C/c2ccccc2)c1=O`, the “% Inhibition” value came out at 4% and the Z score was -0.4.
The matching figures for `CCOc1ccc(-n2nc3ccc(NC(=O)c4ccc(-c5cccc(Cl)c5)o4)cc3n2)cc1`: -2% and 0.31.
The matching figures for `Cc1ccc(C)c(NC(=O)[C@H](OC(=O)c2cc(-c3ccccc3Cl)nc3ccccc23)c2ccccc2)c1`: 9% and -1.62.
Turning to `CCC(CC)NC(=O)c1ccc(OC)c(OC)c1`, the “% Inhibition” value was -8% and the Z score is on record as 1.61.
In the case of `CCc1nc(NCCNS(=O)(=O)c2ccc(C)cc2)c2c(C)nn(-c3ccccc3C)c2n1`, the “% Inhibition” value is given as 4% and the Z score is -0.47.
For `CCCc1cc(C(=O)N2CC[C@H](Oc3cccnc3N(C)C)C2)no1`, the “% Inhibition” value is -5% and the Z score came to 0.99.
On to `Cc1ccc([C@H](C)NC(=O)c2cnn(CCC(C)C)c2C(C)C)o1`, for which the “% Inhibition” value is -8% and the Z score was 0.84.
In the case of `COCc1nc(CN2C[C@@](C)(Cc3ccc4c(c3)OCO4)CCC2=O)no1`, the “% Inhibition” value is given as -2% and the Z score came to 0.31.
As for `CC1=CCN(S(=O)(=O)c2cccc(C(=O)NCc3ccncn3)c2)CC1`, the “% Inhibition” value worked out at 3% and the Z score is -0.6.
Regarding `O=C(NCCOCCO)c1cccc(Br)c1Cl`, the “% Inhibition” value was -5% and the Z score is listed as 0.53.
The like results for `O=C(NCc1nnc(C2CC2)s1)[C@H]1CCN(c2ccccc2)C1` were, in that order, -5% and 0.87.
Consider `COCCNC(=O)c1cn2ccnc(-c3ccc(OC)cc3)c2n1`, for which the “% Inhibition” value was found to be 33% and the Z score was -3.72.
Consider `CC[C@H](C)NC(=O)c1ccc(Oc2ccc(NS(=O)(=O)c3cc(C)ccc3C)cn2)cc1`, for which the “% Inhibition” value was -2% and the Z score was found to be 0.23.
Turning to `CC(=O)c1ccccc1-c1ccc2[nH]ncc2c1`, the “% Inhibition” value was -3% and the Z score was found to be 0.38.
As for `Cc1ccc(NC(=O)NCCc2ncc(C)n2Cc2ccc(F)cc2)cc1C`, the “% Inhibition” value is given as -18% and the Z score turned out to be 1.91.
Turning to `Cc1ccc(NC(=O)NC2CCN(Cc3cc(F)cc(F)c3)CC2)cn1`, the “% Inhibition” value is recorded as -7% and the Z score is listed as 1.21.
The matching figures for `Cc1nc(Cc2noc(CC3CC4CCC3C4)n2)no1` (stereo not drawn): -12% and 1.03.
For `C[C@H](NC(=O)NCC1CCOCC1)c1ccc(Br)cc1`, the “% Inhibition” value is on record as -4% and the Z score was determined as 0.4.
Regarding `CCCc1cnc(C)nc1NCCc1c[nH]cn1`, the “% Inhibition” value is listed as -9% and the Z score was 1.15.
In the case of `COc1nscc1CN(C)C(=O)[C@@H](C(=O)O)C(C)(C)C`, the “% Inhibition” value is recorded as -2% and the Z score is listed as 0.35.
The like results for `Cc1cc(C)c2c(c1)CCCN2C(=O)CCCS(C)(=O)=O` were, in that order, -8% and 0.88.
On to `C[C@@H](c1ccccc1)N1CC(CO)(CO)C1`, for which the “% Inhibition” value is reported as 2% and the Z score is reported as -0.4.
With `CCC(C)C(NC(=O)C(C)Cc1cccs1)C(=O)O` (stereo not drawn), the “% Inhibition” value is -11% and the Z score is reported as 1.51.
In the case of `Cc1nc(CCC(=O)N(C)Cc2csc(-c3ccccc3)n2)n[nH]1`, the “% Inhibition” value is recorded as 12% and the Z score is reported as -1.58.
The like results for `O=C(Nc1cc(-c2cc(F)cc(Br)c2)[nH]n1)c1cccnc1` were, in that order, 2% and -0.19.
Take `CC(=O)N1CCc2nc(CC3CC3)nc(NC[C@H]3CCCO3)c2CC1`: the “% Inhibition” value is given as -21% and the Z score is on record as 2.14.
Regarding `C#CCCC1(CCC(=O)N2CCCc3ccccc3CC2)N=N1`, the “% Inhibition” value turned out to be 9% and the Z score is on record as -1.13.
As to `COc1ccccc1NC(=O)Cn1c(C)cc2nc3n(c(=O)c21)CCCCC3`, the “% Inhibition” value is reported as -4% and the Z score is 0.6.
As for `N#Cc1cccc(C2CCN(C(=O)CN3C(=O)c4ccccc4C3=O)CC2)c1`, the “% Inhibition” value is given as -10% and the Z score came to 1.73.
Turning to `Cc1c(C(=O)NCc2ccccc2)c(C)n2cnn(CC(=O)Nc3ccc4c(c3)OCO4)c(=O)c12`, the “% Inhibition” value is -3% and the Z score amounted to 0.5.
The like results for `COc1ccc(-c2c(-c3ccc(C)c(C)c3)[nH]c3c2c(=O)n(C)c(=O)n3C)cc1` were, in that order, 11% and -1.64.
Take `COc1ccccc1CN1C(=O)O[C@H]2CN(c3ncnc4[nH]cnc34)C[C@H]21`: the “% Inhibition” value is reported as -5% and the Z score came out at 0.91.
